{"sequences": {"note": "Chains of the proteins cited; added tags and fusions are not shown.", "UniProt P17066": "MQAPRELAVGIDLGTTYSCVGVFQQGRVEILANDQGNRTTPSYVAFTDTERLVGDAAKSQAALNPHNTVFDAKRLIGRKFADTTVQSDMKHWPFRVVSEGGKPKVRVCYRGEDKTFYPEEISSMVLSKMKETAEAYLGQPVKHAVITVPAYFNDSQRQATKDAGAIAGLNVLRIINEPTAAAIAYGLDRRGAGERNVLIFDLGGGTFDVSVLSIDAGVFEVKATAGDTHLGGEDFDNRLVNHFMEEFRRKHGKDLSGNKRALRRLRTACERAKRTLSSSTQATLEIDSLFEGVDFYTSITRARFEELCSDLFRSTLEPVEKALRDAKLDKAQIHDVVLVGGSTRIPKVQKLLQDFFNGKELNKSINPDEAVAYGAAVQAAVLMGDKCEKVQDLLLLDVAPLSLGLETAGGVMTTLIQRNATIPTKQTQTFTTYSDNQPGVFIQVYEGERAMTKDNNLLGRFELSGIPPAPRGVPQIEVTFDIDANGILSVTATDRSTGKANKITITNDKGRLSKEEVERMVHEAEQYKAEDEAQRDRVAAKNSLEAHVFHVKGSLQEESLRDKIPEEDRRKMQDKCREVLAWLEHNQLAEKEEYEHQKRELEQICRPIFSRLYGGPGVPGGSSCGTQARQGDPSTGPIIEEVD"}, "source": "paper PMC2885026", "molecules": {"B1": {"name": "Epstein–Barr virus nuclear antigen (EBNA) 3A expressed from recombinant adenovirus Ad-3A (protein, UniProt P12977 1-944)", "chain": "MDKDRPGPPALDDNMEEEVPSTSVVQEQVSAGDWENVLIELSDSSSEKEAEDAHLEPAQKGTKRKRVDHDAGGSAPARPMLPPQPDLPGREAILRRFPLDLRTLLQAIGAAATRIDTRAIDQFFGSQISNTEMYIMYAMAIRQAIRDRRRNPASRRDQAKWRLQTLAAGWPMGYQAYSSWMYSYTDHQTTPTFVHLQATLGCTGGRRCHVTFSAGTFKLPRCTPGDRQWLYVQSSVGNIVQSCNPRYSIFFDYMAIHRSLTKIWEEVLTPDQRVSFMEFLGFLQRTDLSYIKSFVSDALGTTSIQTPWIDDNPSTETAQAWNAGFLRGRAYGIDLLRTEGEHVEGATGETREESEDTESDGDDEDLPCIVSRGGPKVKRPPIFIRRLHRLLLMRAGKRTEQGKEVLEKARGSTYGTPRPPVPKPRPEVPQSDETATSHGSAQVPEPPTIHLAAQGMAYPLHEQHGMAPCPVAQAPPTPLPPVSPGDQLPGVFSDGRVACAPVPAPAGPIVRPWEPSLTQAAGQAFAPVRPQHMPVEPVPVPTVALERPVYPKPVRPAPPKIAMQGPGETSGIRRARERWRPAPWTPNPPRSPSQMSVRDRLARLRAEAQVKQASVEVQPPQLTQVSPQQPMEGPLVPEQQMFPGAPFSQVADVVRAPGVPAMQPQYFDLPLIQPISQGAPVAPLRASMGPVPPVPATQPQYFDIPLTEPINQGASAAHFLPQQPMEGPLVPEQWMFPGAALSQSVRPGVAQSQYFDLPLTQPINHGAPAAHFLHQPPMEGPWVPEQWMFQGAPPSQGTDVVQHQLDALGYTLHGLNHPGVPVSPAVNQYHLSQAAFGLPIDEDESGEGSDTSEPCEALDLSIHGRPCPQAPEWPVQEEGGQDATEVLDLSIHGRPRPRTPEWPVQGEGGQNVTGPETRRVVVSAVVHMCQDDEFPDLQDPPDEA"}, "B2": {"name": "EBNA3A expressed in lymphoblastoid cell lines (protein, UniProt P12977 1-944)", "chain": "B1 chain"}}, "key": {"[1]": {"target": "T1, Epstein–Barr virus nuclear antigen (EBNA) 3A expressed from recombinant adenovirus Ad-3A (Epstein–Barr virus) (UniProt P12977)", "T1 sequence": "B1 chain", "assay": "co-IP"}, "[2]": {"target": "Hsp40 (DNAJA1) (human (endogenous in IMR-90 and LCLs)) (UniProt P31689)", "assay": "co-IP"}, "[3]": {"target": "Hsp70 (HspA1A) (human (endogenous in IMR-90)) (UniProt P0DMV8)", "assay": "co-IP"}, "[4]": {"target": "Hsp70B′ (HspA6) (human (endogenous in IMR-90 and LCLs)) (UniProt P17066)", "assay": "co-IP"}, "[5]": {"target": "Hsp90α (human (endogenous in IMR-90 and ED-LCL)) (UniProt P07900)", "assay": "co-IP"}, "[6]": {"target": "Bag3 (human (endogenous in LCLs)) (UniProt O95817)", "assay": "co-IP; a second independent LCL; data not shown"}, "[7]": {"target": "Hsp40 (DNAJA1) (human (endogenous in IMR-90 and LCLs)) (UniProt P31689)", "assay": "co-IP; a second independent LCL; data not shown"}, "[8]": {"target": "Hsp70B′ (HspA6) (human (endogenous in IMR-90 and LCLs)) (UniProt P17066)", "assay": "co-IP; a second independent LCL; data not shown"}, "[9]": {"target": "Bag3 (human (endogenous in LCLs)) (UniProt O95817)", "assay": "co-IP; ED-LCL; 200 μg of protein immunoprecipitated with a 1:100 dilution of anti-Hsp antibodies, Western blot with anti-EBNA3A"}, "[10]": {"target": "Hsp40 (DNAJA1) (human (endogenous in IMR-90 and LCLs)) (UniProt P31689)", "assay": "co-IP; ED-LCL; 200 μg of protein immunoprecipitated with a 1:100 dilution of anti-Hsp antibodies, Western blot with anti-EBNA3A"}, "[11]": {"target": "Hsp70B′ (HspA6) (human (endogenous in IMR-90 and LCLs)) (UniProt P17066)", "assay": "co-IP; ED-LCL; 200 μg of protein immunoprecipitated with a 1:100 dilution of anti-Hsp antibodies, Western blot with anti-EBNA3A"}, "[12]": {"target": "Hsp90α (human (endogenous in IMR-90 and ED-LCL)) (UniProt P07900)", "assay": "co-IP; ED-LCL; 200 μg of protein immunoprecipitated with a 1:100 dilution of anti-Hsp antibodies, Western blot with anti-EBNA3A"}}, "note": "Results are given in words; binding and its absence hold for the method and conditions named. In cells and extracts the contact can be indirect. Some binding calls cover weakened binding; strength is not graded here. For part of these data: Where a sequence is shown, tags or fusion partners need not be part of it.", "data": [{"molecule": "Hsp70 (HspA1A) (from UniProt P0DMV8 1-641)", "values": [{"measurement": "binding", "setting": "[1]", "value": "binds"}]}, {"molecule": "B1", "values": [{"measurement": "binding", "setting": "[2]", "value": "binds"}, {"measurement": "binding", "setting": "[3]", "value": "binds"}, {"measurement": "binding", "setting": "[4]", "value": "binds"}, {"measurement": "binding", "setting": "[5]", "value": "no binding"}]}, {"molecule": "B2", "values": [{"measurement": "binding", "setting": "[6]", "value": "binds weakly"}, {"measurement": "binding", "setting": "[7]", "value": "binds weakly"}, {"measurement": "binding", "setting": "[8]", "value": "binds weakly"}, {"measurement": "binding", "setting": "[9]", "value": "binds weakly"}, {"measurement": "binding", "setting": "[10]", "value": "binds weakly"}, {"measurement": "binding", "setting": "[11]", "value": "binds weakly"}, {"measurement": "binding", "setting": "[12]", "value": "no binding"}]}]}
